Experimental findings from patent US11873288B2, “Inhibitors for soluble epoxide hydrolase (sEH) and fatty acid amide hydrolase (FAAH)” (The Regents of the University of California, priority 2016, dated 2024) are described below.

The target in assay [1] is T1, sEH (Mus musculus, UniProt P34914).
T1 sequence (P34914 1-554): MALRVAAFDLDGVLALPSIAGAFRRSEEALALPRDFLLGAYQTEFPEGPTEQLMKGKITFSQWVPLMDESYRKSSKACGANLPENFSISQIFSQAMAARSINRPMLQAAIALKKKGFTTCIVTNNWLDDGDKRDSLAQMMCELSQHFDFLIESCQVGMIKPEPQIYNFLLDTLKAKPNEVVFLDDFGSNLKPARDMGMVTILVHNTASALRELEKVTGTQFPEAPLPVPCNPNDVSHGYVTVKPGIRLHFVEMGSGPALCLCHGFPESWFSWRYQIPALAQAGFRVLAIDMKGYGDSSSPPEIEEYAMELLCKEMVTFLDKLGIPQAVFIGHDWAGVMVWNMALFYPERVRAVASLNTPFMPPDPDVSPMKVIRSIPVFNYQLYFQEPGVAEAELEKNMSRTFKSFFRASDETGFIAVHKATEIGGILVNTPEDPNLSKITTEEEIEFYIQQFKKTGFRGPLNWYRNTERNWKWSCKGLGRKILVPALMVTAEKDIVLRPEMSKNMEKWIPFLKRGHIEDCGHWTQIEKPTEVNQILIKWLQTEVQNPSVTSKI
Conditions: read-out: sEH IC50, Mouse.

In assay [2] the target is T2, sEH (Rattus norvegicus, UniProt P80299).
T2 sequence (P80299 1-554): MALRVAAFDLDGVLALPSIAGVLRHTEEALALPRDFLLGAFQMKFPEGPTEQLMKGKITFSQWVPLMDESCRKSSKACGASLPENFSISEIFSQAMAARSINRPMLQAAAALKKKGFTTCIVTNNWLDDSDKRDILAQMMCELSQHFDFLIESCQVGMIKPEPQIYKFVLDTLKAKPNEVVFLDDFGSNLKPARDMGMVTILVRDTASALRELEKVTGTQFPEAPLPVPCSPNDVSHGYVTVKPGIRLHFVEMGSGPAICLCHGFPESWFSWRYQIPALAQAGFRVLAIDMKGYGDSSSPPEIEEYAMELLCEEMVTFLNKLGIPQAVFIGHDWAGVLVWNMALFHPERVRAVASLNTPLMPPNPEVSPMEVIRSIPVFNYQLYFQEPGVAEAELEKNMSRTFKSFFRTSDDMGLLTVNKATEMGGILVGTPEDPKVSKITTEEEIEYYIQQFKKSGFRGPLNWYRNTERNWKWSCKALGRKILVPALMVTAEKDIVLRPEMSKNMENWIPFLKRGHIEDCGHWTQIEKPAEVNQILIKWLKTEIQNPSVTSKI
The following applies: read-out: sEH IC50, Rat.

One may read the IC50 as the concentration at which inhibition is half-maximal. Take `O=C(Nc1ccc(OC(F)(F)F)cc1)N[C@H]1CC[C@H](Oc2ccc(C(=O)OCc3ccccc3)cc2)CC1` [Compound A-14, benzyl 4-((trans-4-(3-(4-(trifluoromethoxy)phenyl)ureido)cyclohexyl)oxy) benzoate]: the IC50 was found to be 2.1 nM at sEH [1] and 1.6 nM at sEH [2].
